Measurements taken from the supplement of paper PMC4166925.
± gives the standard deviation of the averaged measurements. Whole data set: some 33,000 sequences, median “E-score (dimensionless, -0.5 to 0.5)” near -0.049, cut for the highest 2% near 0.37. The list shows a part of the results.

Test system: T1, PmTbr T-box DNA-binding domain (GST fusion)
T1 sequence: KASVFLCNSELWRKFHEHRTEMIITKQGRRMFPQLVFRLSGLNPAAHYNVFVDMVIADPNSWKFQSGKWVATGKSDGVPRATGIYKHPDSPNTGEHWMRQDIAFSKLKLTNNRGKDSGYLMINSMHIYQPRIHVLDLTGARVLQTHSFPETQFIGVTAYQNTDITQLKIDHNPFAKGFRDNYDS
Experiment: PBM E-score of 8-mer (E-score (dimensionless, -0.5 to 0.5)); Tbr is Tbrain of the sea star Patiria miniata (Pm) or the sea urchin Strongylocentrotus purpuratus (Sp); higher = stronger binding preference; most listed sequences are background and not binding sites
Conditions: the construct has about 5 more residues each side
How it was run: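 Using the Universal PBM Analysis Suite, every ungapped 8-mer received an enrichment E-score averaged over duplicate arrays. Probe intensities came from double-stranded Universal Agilent oligonucleotide arrays incubated with 200 nM GST-fused Tbr T-box DNA-binding domain in PBS (pH 7.5). That protein was expressed in BL21 E. coli at 20 °C and purified by glutathione affinity chromatography.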

Sequence	PBM E-score of 8-mer
CTATTGAA	-0.141 ± 0.082
CGGAGGCC	-0.336 ± 0.016
CACTGGCA	0.109 ± 0.026
AATACGTC	-0.103 ± 0.026
CTTACGCA	0.0162 ± 0.046
CTAAGGTA	-0.0874 ± 0.013
ATTAGCGA	0.232 ± 0.018
ATTACATC	-0.131 ± 0.028
ACTTGTCC	0.094 ± 0.023
AGATAAGG	-0.0769 ± 0.012
TAGTGACA	0.398 ± 0.0059
GGTAGCTA	-0.302 ± 0.092
AGGTATAT	0.00539 ± 0.024
ACAAGCCT	0.0219 ± 0.054
GTCTGCAA	0.0447 ± 0.062
AGGGGATC	-0.132 ± 0.026
ATTGTCAG	0.134 ± 0.026
AGCGACCC	-0.176 ± 0.15
ACTGTACC	-0.155 ± 0.017
GAGAGACA	-0.00238 ± 0.044
CGTAATCC	-0.218 ± 0.03
AGCCGCAG	-0.155 ± 0.1
GACGAATA	0.0699 ± 0.023
CGTACAGA	-0.26 ± 0.075
AAGGAATG	-0.109 ± 0.08

Sequence	PBM E-score of 8-mer
ATCTTCAA	-0.234 ± 0.059
AATATGAG	-0.12 ± 0.0047
ATCTAGCC	-0.193 ± 0.013
ACATTGAA	-0.122 ± 0.013
CAGACTCG	-0.159 ± 0.062
ACACGCTC	0.135 ± 0.053
GGGGCGCA	-0.273 ± 0.015
CTTGCCGA	0.128 ± 0.0035
ATTAGCTC	-0.00311 ± 0.0071
CCGCACCG	0.136 ± 0.028
ATAACCTA	-0.148 ± 0.12
ACCTCAGC	0.201 ± 0.017
AGGGCATG	-0.148 ± 0.028
AGCCTACA	-0.0331 ± 0.081
ACCGTGAA	0.207 ± 0.017
CACTCGCC	0.146 ± 0.014
GGGCCTGA	-0.27 ± 0.045
CCGGTACA	-0.00601 ± 0.0053
CAACAGCC	-0.0907 ± 0.016
CACGAAGA	-0.123 ± 0.0026
ATGTCATC	-0.0845 ± 0.035
ACAGGTGC	0.4412 ± 0.0022
ACGTAGTA	-0.242 ± 0.018
ACGGGCGA	0.144 ± 0.054
AGTGCCAG	0.2664 ± 0.0016

Sequence	PBM E-score of 8-mer
ACTGATGG	0.0102 ± 0.053
GTCTCACA	0.392 ± 0.019
AGAGGGGA	-0.146 ± 0.012
AACCGGCG	-0.0858 ± 0.12
GATTGGAA	-0.225 ± 0.0081
AAGTCATA	-0.0653 ± 0.022
GATACTAA	-0.0565 ± 0.068
ACGCAAGA	-0.0593 ± 0.01
GCAACCGC	0.0279 ± 0.085
ATGGAAAG	0.0338 ± 0.0075
ACAGGTTG	0.234 ± 0.042
CCGTTTCA	-0.0032 ± 0.017
CAGTGTCA	0.31 ± 0.017
CCACGCTA	-0.0567 ± 0.028
CTCTACGA	-0.185 ± 0.035
AGCCTCCG	-0.347 ± 0.069
TACATAGA	-0.22 ± 0.058
CGCGGAAA	0.0616 ± 0.025
CAGCGACA	0.233 ± 0.019
GAAACACA	0.157 ± 0.028
GACCCATC	-0.173 ± 0.076
CATTTCGG	-0.0642 ± 0.055
CTGCTGCA	0.00121 ± 0.022
CGCAGAAC	-0.108 ± 0.059
AGTTTGAC	0.156 ± 0.044

Sequence	PBM E-score of 8-mer
ATCAAGAC	0.0515 ± 0.066
ACGGATAA	-0.1012 ± 0.00099
CCACTTCC	0.0762 ± 0.022
AGTCCTGG	-0.259 ± 0.064
CGCATCTC	0.0415 ± 0.027
AGCACTCG	0.103 ± 0.014
AACTTTGA	-0.167 ± 0.041
AGGAAAGA	-0.051 ± 0.033
ACCCGTCG	0.276 ± 0.021
TCCTCGCA	0.319 ± 0.0054
CAAAGATG	-0.0619 ± 0.041
CCATCCTC	-0.158 ± 0.11
CGAGGGCG	0.181 ± 0.02
ACACAGAC	0.0304 ± 0.021
AGGTTAAA	-0.3161 ± 0.0025
ATATATGG	-0.288 ± 0.057
ACCATATC	-0.0122 ± 0.049
CAGCTTGA	-0.0992 ± 0.0015
AGTCTAAG	-0.369 ± 0.019
ATTCTCAA	0.115 ± 0.051
GCAGTTCC	-0.0984 ± 0.0049
AGTACATA	-0.197 ± 0.053
ACTCAGTG	-0.0184 ± 0.018
CCTCGTCA	0.256 ± 0.069
CTAGTTGA	-0.0529 ± 0.016

Sequence	PBM E-score of 8-mer
CCCTGTAA	0.166 ± 0.038
AAAAAGCT	-0.0814 ± 0.012
CTCACTAC	0.0944 ± 0.039
AATTAGAG	-0.268 ± 0.0049
TATGCAAA	-0.152 ± 0.035
GGCCGACC	-0.27 ± 0.011
AGAATATA	-0.123 ± 0.027
AACGGGCA	-0.0173 ± 0.043
AATGCATC	0.0233 ± 0.047
AAATGCTA	-0.128 ± 0.052
ACGATTCA	-0.0344 ± 0.0071
AGGGTAAT	-0.215 ± 0.023
CGCTCCCC	0.0654 ± 0.012
TCCTCAAA	-0.211 ± 0.018
AGTGCACA	0.0476 ± 0.052
AATATGGC	-0.033 ± 0.04
AGCCTGTC	-0.00536 ± 0.037
CAAAATGC	-0.128 ± 0.053
CCATGAGA	-0.145 ± 0.059
GCTATGTA	-0.0444 ± 0.035
AGGGTTAT	-0.0299 ± 0.011
ATCAGTGG	-0.0659 ± 0.059
GTGGGATA	0.203 ± 0.03
ACATTGGG	0.0368 ± 0.014
ACCAGGCA	-0.00462 ± 0.024

Sequence	PBM E-score of 8-mer
ATTCTACA	-0.0686 ± 0.048
AGAGGGCC	-0.265 ± 0.0075
AAATTGGG	-0.0203 ± 0.044
TACTTAGA	0.0947 ± 0.0054
CTAACGCC	0.355 ± 0.018
AGCTCTCC	-0.169 ± 0.029
CTTTTATA	-0.0188 ± 0.06
TACAACCA	-0.114 ± 0.086
ACGAATCC	-0.133 ± 0.064
CCTTACAG	-0.0186 ± 0.048
CCGCAGTC	-0.24 ± 0.05
TTGATCAA	-0.0605 ± 0.058
ACGGACGA	-0.246 ± 0.066
GTTGCGGA	-0.0911 ± 0.023
CAGTAACA	0.0951 ± 0.01
CCAAGCCC	-0.214 ± 0.048
AGCATCTG	0.0114 ± 0.12
ATGTTTTA	-0.132 ± 0.033
TAACCTGA	-0.102 ± 0.058
AGAGAGCC	-0.245 ± 0.015
CCACGGTA	-0.141 ± 0.005
ACGCGCTG	0.24 ± 0.029
GTCACCAA	0.198 ± 0.035
AATGGGGA	-0.2784 ± 0.0015
TGGGGGAA	-0.199 ± 0.014

Sequence	PBM E-score of 8-mer
GACACAAC	0.256 ± 0.013
AAACAGTA	-0.114 ± 0.014
GCATATGA	0.0468 ± 0.048
CGAGCCTA	-0.0651 ± 0.086
AATGGGCG	0.0767 ± 0.0051
AAGAGTTA	-0.112 ± 0.022
CCTTTAGC	0.195 ± 0.063
CATACCGC	0.00102 ± 0.04
AGCTCGTG	0.111 ± 0.0061
GCCTCCAC	-0.112 ± 0.029
AAACGTTT	-0.271 ± 0.12
CTGCACGA	-0.112 ± 0.017
ACCGATCC	0.0264 ± 0.04
GAGGAGAC	0.00924 ± 0.026
CTGTGCCC	-0.118 ± 0.013
AGTGTTCA	0.179 ± 0.031
ACCCGTCC	-0.164 ± 0.017
GAAACCAA	-0.0337 ± 0.053
ACGTGCTG	0.165 ± 0.034
AAGCGCGC	0.106 ± 0.015
TCCTAGAA	-0.0822 ± 0.13
ATAGGGCC	-0.194 ± 0.043
